Single values are uncertain, as repeats are few or missing.
What was measured:
[1] = test system: CHO-K1; test: micronucleus frequency (% of nucleated events); higher = more micronuclei (genotoxic)
[2] = test system: CHO-K1; test: hypodiploid nuclei frequency (% of nucleated events); higher = more hypodiploid events (aneugenic)
Method: (§1)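 Flow-cytometric in vitro micronucleus assay (Litron MicroFlow) in CHO-K1 cells in 96-well plates, 19 concentrations (4.5-200 µM, n=1 per concentration). Without S9, cells were exposed for 24 h and sampled at 48 h. With Aroclor 1254-induced rat liver S9, cells were exposed for 3-4 h and sampled at 27-28 h. Read-outs are %MN and %hypodiploid nuclei relative to nucleated events, and relative survival as the nuclei-to-bead ratio versus the 1% DMSO vehicle control (x100).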

[3] = test system: CHO-K1; test: relative survival (nuclei to bead ratio vs DMSO control) (% of vehicle control); higher = more surviving cells
Method: as §1
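Throughout, for hypodiploid nuclei frequency (% of nucleated events): hypodiploid nuclei gated on a flow cytometer with 488 nm excitation after SYTOX Green staining, cultures at 37 °C, positive controls vinblastine without S9 and cyclophosphamide with S9.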
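Throughout, for micronucleus frequency (% of nucleated events): cells lysed with nuclei stained by SYTOX Green, then micronucleus-gated events counted against nucleated events by flow cytometry with 488 nm excitation.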
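Throughout, for relative survival (nuclei to bead ratio vs DMSO control): Lysed-cell nuclei stained with SYTOX Green and counted against counting beads by flow cytometry at 488 nm excitation, with vinblastine (no S9) and cyclophosphamide (plus S9) as positive controls.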

CCC(C)c1ccccc1O (stereo not given) [2-(Butan-2-yl)phenol]
Details | hypodiploid nuclei frequency, [2] [%] | micronucleus frequency, [1] [%] | relative survival, [3]
concentration: 4.5 (µM), S9 metabolic activation: with S9, exposure time: 3-4 hours | 0.16 | 1.58 | 170
concentration: 4.5 (µM), S9 metabolic activation: without S9, exposure time: 24 hours | 0.86 | 2.56 | 140
concentration: 5.63 (µM), S9 metabolic activation: with S9, exposure time: 3-4 hours | 0.2 | 0.94 | 176
concentration: 5.63 (µM), S9 metabolic activation: without S9, exposure time: 24 hours | 1.02 | 2.84 | 164
concentration: 7.04 (µM), S9 metabolic activation: with S9, exposure time: 3-4 hours | 0.2 | 1.38 | 173
concentration: 7.04 (µM), S9 metabolic activation: without S9, exposure time: 24 hours | 0.58 | 2.5 | 159
concentration: 8.8 (µM), S9 metabolic activation: with S9, exposure time: 3-4 hours | 0.2 | 1.04 | 150
concentration: 8.8 (µM), S9 metabolic activation: without S9, exposure time: 24 hours | 0.54 | 2.08 | 138
concentration: 11 (µM), S9 metabolic activation: with S9, exposure time: 3-4 hours | 0.24 | 1.22 | 159
concentration: 11 (µM), S9 metabolic activation: without S9, exposure time: 24 hours | 0.62 | 3.06 | 144
concentration: 13.7 (µM), S9 metabolic activation: with S9, exposure time: 3-4 hours | 0.2 | 1.38 | 166
concentration: 13.7 (µM), S9 metabolic activation: without S9, exposure time: 24 hours | 0.62 | 2.52 | 128
concentration: 17.2 (µM), S9 metabolic activation: with S9, exposure time: 3-4 hours | 0.14 | 1.42 | 171
concentration: 17.2 (µM), S9 metabolic activation: without S9, exposure time: 24 hours | 0.6 | 2.44 | 128
concentration: 21.5 (µM), S9 metabolic activation: with S9, exposure time: 3-4 hours | 0.38 | 1.92 | 117
concentration: 21.5 (µM), S9 metabolic activation: without S9, exposure time: 24 hours | 0.78 | 2.16 | 117
concentration: 26.8 (µM), S9 metabolic activation: with S9, exposure time: 3-4 hours | 0.16 | 2.86 | 181
concentration: 26.8 (µM), S9 metabolic activation: without S9, exposure time: 24 hours | 0.78 | 2.04 | 128
concentration: 33.6 (µM), S9 metabolic activation: with S9, exposure time: 3-4 hours | 0.48 | 2.72 | 155
concentration: 33.6 (µM), S9 metabolic activation: without S9, exposure time: 24 hours | 0.5 | 1.78 | 164
concentration: 41.9 (µM), S9 metabolic activation: with S9, exposure time: 3-4 hours | 0.62 | 3.86 | 122
concentration: 41.9 (µM), S9 metabolic activation: without S9, exposure time: 24 hours | 0.6 | 2.1 | 158
concentration: 52.4 (µM), S9 metabolic activation: with S9, exposure time: 3-4 hours | 1.1 | 6.54 | 107
concentration: 52.4 (µM), S9 metabolic activation: without S9, exposure time: 24 hours | 0.9 | 3.08 | 144
concentration: 65.5 (µM), S9 metabolic activation: with S9, exposure time: 3-4 hours | 1.16 | 11.4 | 77
concentration: 65.5 (µM), S9 metabolic activation: without S9, exposure time: 24 hours | 0.86 | 2.42 | 149
concentration: 81.9 (µM), S9 metabolic activation: with S9, exposure time: 3-4 hours | 1.54 | 32.4 | 57.5
concentration: 81.9 (µM), S9 metabolic activation: without S9, exposure time: 24 hours | 1.02 | 2.38 | 136
concentration: 102 (µM), S9 metabolic activation: with S9, exposure time: 3-4 hours | 1.83 | 64.9 | 43.5
concentration: 102 (µM), S9 metabolic activation: without S9, exposure time: 24 hours | 0.7 | 3.68 | 122
concentration: 128 (µM), S9 metabolic activation: with S9, exposure time: 3-4 hours | – | – | 33.5
concentration: 128 (µM), S9 metabolic activation: without S9, exposure time: 24 hours | 0.92 | 5.48 | 132
concentration: 160 (µM), S9 metabolic activation: with S9, exposure time: 3-4 hours | – | – | 30
concentration: 160 (µM), S9 metabolic activation: without S9, exposure time: 24 hours | 1.16 | 3.26 | 120
concentration: 200 (µM), S9 metabolic activation: with S9, exposure time: 3-4 hours | – | – | 30.6
concentration: 200 (µM), S9 metabolic activation: without S9, exposure time: 24 hours | 1.04 | 2.78 | 115

CCOCCOCCO [2-(2-Ethoxyethoxy)ethanol]
Details | hypodiploid nuclei frequency, [2] [%] | micronucleus frequency, [1] [%] | relative survival, [3]
concentration: 4.5 (µM), S9 metabolic activation: with S9, exposure time: 3-4 hours | 0.3 | 0.96 | 137
concentration: 4.5 (µM), S9 metabolic activation: without S9, exposure time: 24 hours | 1.1 | 1.04 | 96.4
concentration: 5.63 (µM), S9 metabolic activation: with S9, exposure time: 3-4 hours | 0.16 | 0.98 | 144
concentration: 5.63 (µM), S9 metabolic activation: without S9, exposure time: 24 hours | 1.24 | 0.98 | 107
concentration: 7.04 (µM), S9 metabolic activation: with S9, exposure time: 3-4 hours | 0.26 | 1.02 | 115
concentration: 7.04 (µM), S9 metabolic activation: without S9, exposure time: 24 hours | 1.02 | 1.3 | 82.1
concentration: 8.8 (µM), S9 metabolic activation: with S9, exposure time: 3-4 hours | 0.24 | 0.92 | 99.9
concentration: 8.8 (µM), S9 metabolic activation: without S9, exposure time: 24 hours | 0.88 | 1.5 | 101
concentration: 11 (µM), S9 metabolic activation: with S9, exposure time: 3-4 hours | 0.26 | 0.8 | 107
concentration: 11 (µM), S9 metabolic activation: without S9, exposure time: 24 hours | 0.92 | 1.42 | 102
concentration: 13.7 (µM), S9 metabolic activation: with S9, exposure time: 3-4 hours | 0.2 | 0.9 | 102
concentration: 13.7 (µM), S9 metabolic activation: without S9, exposure time: 24 hours | 0.7 | 1.22 | 78.7
concentration: 17.2 (µM), S9 metabolic activation: with S9, exposure time: 3-4 hours | 0.18 | 1.22 | 94.6
concentration: 17.2 (µM), S9 metabolic activation: without S9, exposure time: 24 hours | 0.76 | 1.34 | 80.9
concentration: 21.5 (µM), S9 metabolic activation: with S9, exposure time: 3-4 hours | 0.22 | 0.84 | 93.7
concentration: 21.5 (µM), S9 metabolic activation: without S9, exposure time: 24 hours | 1.02 | 1.46 | 94.8
concentration: 26.8 (µM), S9 metabolic activation: with S9, exposure time: 3-4 hours | 0.42 | 1.64 | 129
concentration: 26.8 (µM), S9 metabolic activation: without S9, exposure time: 24 hours | 1.16 | 1.08 | 83
concentration: 33.6 (µM), S9 metabolic activation: with S9, exposure time: 3-4 hours | 0.32 | 1.7 | 122
concentration: 33.6 (µM), S9 metabolic activation: without S9, exposure time: 24 hours | 1.02 | 0.96 | 92.8
concentration: 41.9 (µM), S9 metabolic activation: with S9, exposure time: 3-4 hours | 0.26 | 1.32 | 121
concentration: 41.9 (µM), S9 metabolic activation: without S9, exposure time: 24 hours | 0.82 | 1.06 | 111
concentration: 52.4 (µM), S9 metabolic activation: with S9, exposure time: 3-4 hours | 0.34 | 1.36 | 125
concentration: 52.4 (µM), S9 metabolic activation: without S9, exposure time: 24 hours | 1 | 1.32 | 98.5
concentration: 65.5 (µM), S9 metabolic activation: with S9, exposure time: 3-4 hours | 0.34 | 1.76 | 102
concentration: 65.5 (µM), S9 metabolic activation: without S9, exposure time: 24 hours | 0.9 | 1.3 | 90.6
concentration: 81.9 (µM), S9 metabolic activation: with S9, exposure time: 3-4 hours | 0.34 | 1.74 | 104
concentration: 81.9 (µM), S9 metabolic activation: without S9, exposure time: 24 hours | 1 | 1.22 | 85.2
concentration: 102 (µM), S9 metabolic activation: with S9, exposure time: 3-4 hours | 0.24 | 1.7 | 115
concentration: 102 (µM), S9 metabolic activation: without S9, exposure time: 24 hours | 1.24 | 1.34 | 87.5
concentration: 128 (µM), S9 metabolic activation: with S9, exposure time: 3-4 hours | 0.3 | 1.8 | 105
concentration: 128 (µM), S9 metabolic activation: without S9, exposure time: 24 hours | 1.3 | 1.9 | 90.6
concentration: 160 (µM), S9 metabolic activation: with S9, exposure time: 3-4 hours | 0.32 | 1.34 | 99.9
concentration: 160 (µM), S9 metabolic activation: without S9, exposure time: 24 hours | 1.74 | 2.12 | 92.8
concentration: 200 (µM), S9 metabolic activation: with S9, exposure time: 3-4 hours | 0.32 | 2.1 | 105
concentration: 200 (µM), S9 metabolic activation: without S9, exposure time: 24 hours | 1.38 | 2.56 | 79.5

From the supplement of paper PMC9151546
